Publication PMC4336329 (PLoS ONE, 2015)
About 14,000 (4.5%) of roughly 310,000 compounds showed an effect of 50% or more. Effects have a minus sign here. The list shows a part of the results.

Each molecule was assayed against human ether-à-go-go-related gene (hERG) potassium channel (human, UniProt Q12809) (assay: primary screen, population patch clamp on CHO cells stably expressing hERG).
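Note: peak tail current of the secondary pulse compared with the same well before compound.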

Sequence of human ether-à-go-go-related gene (hERG) potassium channel (Q12809 whole entry, looked up): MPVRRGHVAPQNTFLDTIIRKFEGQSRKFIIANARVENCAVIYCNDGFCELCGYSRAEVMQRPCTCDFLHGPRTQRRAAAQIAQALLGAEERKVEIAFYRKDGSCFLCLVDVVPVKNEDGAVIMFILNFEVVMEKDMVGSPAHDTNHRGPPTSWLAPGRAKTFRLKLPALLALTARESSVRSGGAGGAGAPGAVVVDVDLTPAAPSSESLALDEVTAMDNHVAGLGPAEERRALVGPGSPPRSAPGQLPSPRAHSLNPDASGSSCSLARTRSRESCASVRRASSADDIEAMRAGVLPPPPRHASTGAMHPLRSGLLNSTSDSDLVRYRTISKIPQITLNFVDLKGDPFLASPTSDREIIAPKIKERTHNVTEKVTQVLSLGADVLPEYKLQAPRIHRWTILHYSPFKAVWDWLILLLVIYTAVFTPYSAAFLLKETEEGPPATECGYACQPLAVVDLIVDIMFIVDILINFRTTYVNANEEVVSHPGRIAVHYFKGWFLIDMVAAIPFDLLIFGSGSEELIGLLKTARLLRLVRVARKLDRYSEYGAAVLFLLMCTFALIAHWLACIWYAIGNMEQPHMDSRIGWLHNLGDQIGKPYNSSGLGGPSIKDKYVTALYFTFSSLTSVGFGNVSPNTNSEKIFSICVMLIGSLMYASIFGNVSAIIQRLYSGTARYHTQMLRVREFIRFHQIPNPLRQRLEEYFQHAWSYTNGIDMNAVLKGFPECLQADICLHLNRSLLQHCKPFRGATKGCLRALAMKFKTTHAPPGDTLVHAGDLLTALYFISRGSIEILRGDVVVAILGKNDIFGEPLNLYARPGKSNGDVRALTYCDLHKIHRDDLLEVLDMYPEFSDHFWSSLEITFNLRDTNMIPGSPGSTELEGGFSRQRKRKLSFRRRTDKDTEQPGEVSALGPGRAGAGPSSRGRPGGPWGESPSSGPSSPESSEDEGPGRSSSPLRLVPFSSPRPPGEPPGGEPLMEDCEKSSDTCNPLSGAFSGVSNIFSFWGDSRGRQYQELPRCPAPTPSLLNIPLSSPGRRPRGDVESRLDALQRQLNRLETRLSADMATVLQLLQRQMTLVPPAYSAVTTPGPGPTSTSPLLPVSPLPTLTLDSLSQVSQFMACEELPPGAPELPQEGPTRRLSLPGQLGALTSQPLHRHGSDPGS

Row | Compound | hERG current change (%, negative = inhibition) at 10uM [%]
1 | CCn1cc(C=C2C(=O)NC(=O)NC2=O)c2ccccc21 | 8.88
2 | Cc1cc(OCCCC(=O)NCCN2C(=O)S/C(=C\c3cccnc3)C2=O)ccc1Cl | -6.35
3 | CCOc1ccc2nc(N3CCCN(C(=O)Nc4ccccc4C)CC3)c(C#N)cc2c1 | -23.2
4 | O=c1c2ccccc2nc(COc2ccccc2)n1/N=C/c1ccco1 | -16.3
5 | C/C(=N\NC(=O)CNc1cccc2ccccc12)c1ccc(Br)s1 | 6.57
6 | CC(C)Cc1nnc(NC(=O)c2ccc3c(=O)n4c(nc3c2)CCC4)s1 | -20.5
7 | Cc1ccccc1NC(=O)CSc1nc(Nc2ccccc2)nc(N2CCOCC2)n1 | 5.35
8 | CCOC(=O)Cc1csc(NC(=O)Nc2ccc(C)cc2)n1 | 16.1
9 | CCOc1ccc(CCNC(=O)c2ccc(Cl)c(S(=O)(=O)N3CCOCC3)c2)cc1OCC | -20.4
10 | c1ccc2oc(SCc3nc4ccccc4s3)nc2c1 | -0.629
11 | CCOC(=O)c1sc(NC(=O)CN2C(=O)NC3(CCCCCCC3)C2=O)c(C(=O)OCC)c1C | -5.88
12 | COc1ccc(CNc2nc3ccccc3n2Cc2ccccc2)cc1OC | -44.7
13 | C1COCCO1.CCOc1ccccc1N/C(=N/c1nc(C)cc(C)n1)NC(=O)Nc1ccc(Cl)c(Cl)c1 | 2.03
14 | C(=C\c1nc(-c2cccnc2)no1)/c1ccccc1 | 4.25
15 | CCN(Cc1ccccc1)Cc1ccc(OCc2ccccc2)c(OC)c1 | -31.2
16 | c1ccc(CSc2nnc3ccc(-c4ccco4)nn23)nc1 | 9.26
17 | COc1ccc(C(=O)NCCc2nnc(SCC(=O)Nc3ccc(Br)cc3)n2C)cc1 | -16.6
18 | Cc1nc(NC(=O)CSc2nc(N)cc(N)n2)sc1C | -5.19
19 | c1ccc(-c2c(-c3ccccc3)n(Cc3ccco3)c3ncnc(NCCCn4ccnc4)c23)cc1 | -71.6
20 | CCCCOc1ccc(C(=O)N/C(=C\c2ccc([N+](=O)[O-])cc2)C(=O)OCc2ccco2)cc1 | 8.44
21 | O=C(O)C1CCCCC1C(=O)NCCCN1CCOCC1 (stereo not shown) | -1.05
22 | O=C(COc1ccccc1Cl)Nc1ccc(N2CCN(C(=O)c3ccccc3)CC2)cc1 | 1.5

Row | Compound | hERG current change (%, negative = inhibition) at 10uM [%]
23 | COc1cccc(NC(=O)CN(C)C(=O)c2ccccc2Sc2ccccc2C#N)c1 | 2.55
24 | COc1cccc(CNC(=O)c2ccc(NC(=O)CC3SC(N4CCCC4)=NC3=O)cc2)c1 (stereo not shown) | -4.93
25 | CCn1cc(/C=C2/SC(=S)NC2=O)c(C)n1 | 7.91
26 | COC(=O)CCNC(=O)c1ccc2nc(Cc3ccc(OC)cc3)oc2c1 | 13.2
27 | N#Cc1c(NC(=O)c2ccc(Br)o2)n(-c2ccccc2)c2nc3ccccc3nc12 | 5.45
28 | O=C(CSc1nnc(NC(=O)C2CC(=O)N(c3ccc(F)cc3)C2)s1)NCC1CCCO1 (stereo not shown) | 14.7
29 | O=C(Nc1ccccc1N1CCCCC1)C1CCN(S(=O)(=O)c2cccc(C(F)(F)F)c2)CC1 | 2.96
30 | CCOC(=O)CNC(=O)c1sc(NC(=O)c2cccc(F)c2)nc1C | -0.522
31 | CN(C)S(=O)(=O)NC(c1ccccc1)c1ccccc1 | -2.78
32 | CCOC(=O)Nc1nc(C)c(C(=O)N(C)C)s1 | -3.53
33 | CC(C)Oc1cccc(C(=O)NC(=S)N2CCN(c3ccc(C(F)(F)F)cc3[N+](=O)[O-])CC2)c1 | -10.5
34 | COc1ccc(/C=N/NC(=O)c2ccc(Cn3cc([N+](=O)[O-])cn3)o2)cc1O | 15.8
35 | CCOc1ccc(N2C(=O)CC(S/C(N)=N/N=C/c3cccs3)C2=O)cc1 (stereo not shown) | 13.4
36 | CC1CN(c2ccc(S(=O)(=O)N3CCCC3)cn2)CC(C)O1 (stereo not shown) | 13.9
37 | O=C(Nc1ccc(N2CCOCC2)c(S(=O)(=O)Nc2ccccc2Cl)c1)c1ccccc1 | -3.45
38 | CCN1CC=C2C(C#N)=C(N)C(C#N)(C#N)[C@H](c3ccoc3)[C@H]2C1 | -8.21
39 | FC(F)(F)COc1ccc(-c2nnc(SCc3c(Cl)cccc3Cl)o2)cn1 | 19.3
40 | CCOc1ccc(CCNC(=O)c2nnc(Cc3ccc(F)cc3)o2)cc1OCC | -1.78
41 | O=c1cnnc(N/N=C/c2c[nH]c3ccccc23)[nH]1 | 23.9
42 | CCCc1cc(C(N)=O)c(NC(=O)c2cc(C)on2)s1 | -16.9
43 | CC(C)CC(=O)Nc1ccc(N2CCN(C(=O)c3cccs3)CC2)cc1 | -42.9
44 | O=C(CS(=O)(=O)c1ccccc1)Nc1nc(-c2ccccc2)cs1 | -51.9

Row | Compound | hERG current change (%, negative = inhibition) at 10uM [%]
45 | O=C(Cn1cnc(S(=O)(=O)N2CCCC2)c1)Nc1cccc(Br)c1 | 19.4
46 | COc1cccc(C(=O)Nc2cccc3ccccc23)c1OC | -5.93
47 | CSc1nc2ccc(S(=O)(=O)Nc3c(C)n(C)n(-c4ccccc4)c3=O)cc2s1 | -12
48 | N#CCSc1nnc(COc2cccc3ccccc23)n1-c1cccc(Cl)c1 | 8.77
49 | CCc1nnc(NC(=O)CCS(=O)(=O)c2ccc(C)cc2)s1 | 12.7
50 | COCCCNc1nc2ccccc2nc1NS(=O)(=O)c1cccs1 | 18.5
51 | Cc1cc(C(=O)N2CCCC(Nc3ccccc3)C2)c2ccc(F)cc2n1 (stereo not shown) | 3.78
52 | COc1nc(Nc2ccc(-c3nc4ccccc4o3)cc2)nc(N2CCOCC2)n1 | 11.8
53 | COc1ccc(-c2cc(C(=O)Nc3ccccc3SC)no2)cc1 | 0.498
54 | O=[N+]([O-])c1ccc(N/N=C\c2cccnc2)nc1 | 19.9
55 | Cc1ccc(-n2c(Cl)c(Cl)nc(Cl)c2=O)cc1 | -2.2
56 | CC(=O)NS(=O)(=O)c1ccc(NS(=O)(=O)c2ccc(F)cc2)cc1 | 15.3
57 | CC(C)[C@]1(c2ccc(Cl)cc2)ON(c2ccccc2C(F)(F)F)C1=O | 6.31
58 | Cc1cc(C)n2c(SCC(=O)N(C)C3CCCCC3)nnc2n1 | 25.8
59 | COc1ccc(/C=N/Nc2ccc(C(=O)O)cc2)c(OC)c1OC | 23.5
60 | CCOC(=O)c1cccc(NC(=O)CN2C(=O)C3C4C=CC(C4)C3C2=O)c1 (stereo not shown) | -13.7
61 | COc1ccccc1C(=O)NC(CCSC)C(=O)NNC(=O)c1ccccc1O (stereo not shown) | 15.3
62 | O=C(O)c1sccc1SCc1ccc(Cl)cc1Cl | 13.1
63 | COc1ccc(OCCCC(=O)Nc2cc(Cl)ccc2-n2cncn2)cc1 | -47.7
64 | CCOc1ccc2[nH]c(C(=O)N/N=C/c3ccc(OC)cc3)cc2c1 | 19.4
65 | CCc1c(C(=O)N/N=C/c2ccc(OCc3ccc(F)cc3)c(OC)c2)nnn1-c1nonc1N | 26.6
66 | CC(=O)C1=C(C)NC(=O)NC1c1cc(Br)ccc1OCC#N (stereo not shown) | 22.6

Row | Compound | hERG current change (%, negative = inhibition) at 10uM [%]
67 | CC(C)[C@H](NS(=O)(=O)c1cccc(C(F)(F)F)c1)C(=O)OCC(N)=O | 9.97
68 | COc1ccc(/C=C2\Oc3cc(OCC(=O)N4CC(O)C[C@H]4C(=O)O)ccc3C2=O)c(OC)c1OC (stereo partly shown) | 16
69 | CSCCC(NS(=O)(=O)c1ccc(Cl)cc1)C(=O)OCC(=O)c1ccc(F)cc1 (stereo not shown) | -16
70 | O=C(NC1CCCCC1)C(c1ccco1)N(Cc1cccs1)C(=O)Cn1nnc2ccccc21 (stereo not shown) | 6.34
71 | CC1=CC(C)(C)Nc2ccc(OC(=O)CN3C(=O)C4CCCCC4C3=O)cc21 (stereo not shown) | -8.86
72 | CC(=O)OC(CC(=O)O)C[N+](C)(C)C.[Cl-] (stereo not shown) | 8.67
73 | CC(NC(=O)CCCn1cc([N+](=O)[O-])cn1)c1ccccc1 (stereo not shown) | -3.6
74 | Nc1c(-c2ccc3c(c2)OCCO3)oc2ccccc2c1=O | 15.2
75 | COc1ccc2c(c1)C(C)CC(C)(C)N2C(=O)CSc1nc2ccccc2s1 (stereo not shown) | 11.9
76 | CCOC(=O)c1cnc(SCCN2CCOCC2)nc1N | 9.59
77 | CCCCn1c(N)c(N(CC(C)C)C(=O)COC(=O)Cc2cccc(OC)c2)c(=O)[nH]c1=O | -11.7
78 | CCn1c(SCC(=O)Nc2ccc3c(c2)c2ccccc2n3CC)nnc1-c1ccco1 | 5.85
79 | Cc1cccc(NS(=O)(=O)c2cccc3cccnc23)n1 | 4.27
80 | CC(C)c1ccc2c(c1)C(N1CCN(C)CC1)Cc1cccnc1S2.O=C(O)/C=C\C(=O)O (stereo not shown) | -50.6
81 | CCOC(=O)c1oc2ccccc2c1NC(=O)COC | -12.2
82 | CCOCCC(=O)Nc1cc(Cl)ccc1OC | -6.1
83 | CC(C)Sc1nc2ccccc2[nH]1 | 27.8
84 | CCOC(=O)c1c(C2COc3ccccc3O2)csc1NC(=O)c1ccco1 (stereo not shown) | 13.2
85 | N#Cc1ccccc1NC(=O)c1ccc(-c2ccccc2Cl)o1 | 14.7
